# Test results: PubChem BioAssay AID485360 (National Center for Advancing Translational Sciences (NCATS), 2010)
# Out of some 230,000 compounds screened, about 1,500 (0.65%) were called active. Inconclusive means that the source gave no clear call. Such entries were picked first, then a sample of the others. Calls come from the whole dose curve; as a rule, active = well fitted inhibition curve with a large enough effect; inconclusive = small, poorly fitted or top-dose-only effect; inactive = no such curve, though single readings can be large or run the other way. Potencies beside an inconclusive call are fits to weak or partial responses and may not hold up. Square brackets hold non-standard residues; d marks the D form. Peptide text beside a SMILES is read from it. * marks the point of attachment. ξ: configuration not given here. Cbz = O=C(OCc1ccccc1)*; ξV = CC(C)C(N)C(=O)O
# Molecular target: Lethal(3)malignant brain tumor-like protein 1 (Homo sapiens) (UniProt Q9Y468)
# UniProt Q9Y468, sequence (Q9Y468 whole entry, looked up): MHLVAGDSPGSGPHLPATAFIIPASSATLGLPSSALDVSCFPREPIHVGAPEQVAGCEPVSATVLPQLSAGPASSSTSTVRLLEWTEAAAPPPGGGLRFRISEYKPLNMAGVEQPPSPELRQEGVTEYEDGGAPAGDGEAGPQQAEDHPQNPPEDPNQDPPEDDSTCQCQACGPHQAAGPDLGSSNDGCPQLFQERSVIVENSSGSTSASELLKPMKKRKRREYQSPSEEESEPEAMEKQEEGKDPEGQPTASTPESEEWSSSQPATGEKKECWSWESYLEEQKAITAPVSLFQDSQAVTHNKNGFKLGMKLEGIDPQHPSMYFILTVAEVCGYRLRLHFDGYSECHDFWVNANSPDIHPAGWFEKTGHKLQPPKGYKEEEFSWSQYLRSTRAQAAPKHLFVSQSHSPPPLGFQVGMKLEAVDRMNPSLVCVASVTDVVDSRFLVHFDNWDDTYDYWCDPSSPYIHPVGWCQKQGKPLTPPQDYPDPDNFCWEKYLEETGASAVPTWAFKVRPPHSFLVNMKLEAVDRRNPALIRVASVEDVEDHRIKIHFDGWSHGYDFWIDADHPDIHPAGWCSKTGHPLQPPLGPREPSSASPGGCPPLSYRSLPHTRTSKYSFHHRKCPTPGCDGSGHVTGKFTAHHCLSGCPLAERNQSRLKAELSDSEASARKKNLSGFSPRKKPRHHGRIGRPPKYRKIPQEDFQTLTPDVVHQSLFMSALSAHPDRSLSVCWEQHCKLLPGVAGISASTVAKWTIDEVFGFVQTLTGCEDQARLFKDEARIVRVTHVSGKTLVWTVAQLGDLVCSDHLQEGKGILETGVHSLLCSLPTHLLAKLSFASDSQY
# Test: qHTS Assay for the Inhibitors of L3MBTL1; note: nearly all actives have a fitted effect of over 60% in size
# Details: AlphaScreen L3MBTL1–H3K9me1 peptide binding; series mostly up to 57.1 µM
# Summary of the method: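 L3MBTL1 50 nM + b-AHA-H3(1-15)K9me1 75 nM, 30 min RT; compound added, 30 min RT; streptavidin donor/Ni-chelate acceptor beads 10 ug/mL each final, 30 min RT dark; AlphaScreen read.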
# Potency is the fitted concentration of half-maximal effect; tags give direction and shape of the fitted curve.
row,Compound,Potency
1,O=C(Cc1csc(N2CCOCC2)n1)N/N=C/c1ccc(O)c(O)c1O,inactive
2,CC(C)CC(=O)c1c[nH]c(C(=O)NCCc2ccccn2)c1,"inconclusive: 6.31 µM [inhibitor, single point]"
3,Cc1nn(Cc2ccc(Cl)c(Cl)c2)c(C)c1NC(=O)c1cc(-c2ccc3c(c2)OCO3)on1,inactive
4,COc1ccc(Cn2c(-c3ccc(OC)cc3)nc3ccccc32)cc1,"inconclusive: 6.31 µM [inhibitor, single point]"
5,COc1ccc(OCCn2cc(C=O)c3ccccc32)cc1,"inconclusive: 0.708 µM [inhibitor, single point]"
6,O=C(COC(=O)Cc1cccs1)Nc1cccc(S(=O)(=O)N2CCOCC2)c1,"inconclusive: 28.2 µM [inhibitor, single point]"
7,CN(Cc1cn(-c2ccccc2)nc1-c1ccc2c(c1)OCO2)Cc1nccn1C,"inconclusive: 2.51 µM [inhibitor, full curve, poor fit]"
8,O=C(CSc1nnc(CNC(=O)C23CC4CC(CC(C4)C2)C3)n1-c1ccccc1)Nc1ccccc1,"inconclusive: 0.708 µM [inhibitor, single point]"
9,CC1CCN(C(=O)CCc2ccc(Oc3cc([N+](=O)[O-])cc([N+](=O)[O-])c3)cc2)CC1,"inconclusive: 25.1 µM [inhibitor, partial curve]"
10,COc1ccc(NC(=S)Nc2ncccc2C)c(OC)c1,"inconclusive: 31.6 µM [inhibitor, single point]"
11,Cc1cc(C(=O)CSc2nnc(-c3ccccc3)n2-c2ccccc2)c(C)n1-c1ncn[nH]1,inactive
12,O=C(Nc1cccc2c1C(=O)NC2=O)c1cccnc1Cl,"inconclusive: 35.5 µM [inhibitor, partial curve]"
13,CCOC(=O)c1cc2c(ccn2C)n1CC(=O)N(Cc1ccccc1)c1ccc(F)cc1,"inconclusive: 25.1 µM [inhibitor, single point]"
14,NC(=O)c1c(NC(=O)CN2CCN(S(=O)(=O)c3ccccc3)CC2)sc2c1CCC2,"inconclusive: 35.5 µM [inhibitor, single point]"
15,Cc1ccc(NC(=O)COC(=O)c2c(-c3ccccc3)noc2C)c(C)c1,inactive
16,Cc1c(Br)c(=O)oc2c(Br)c(O)c(O)cc12,active: 3.55 µM
17,CCN1CCN(c2oc(COc3ccc(-c4ccccc4)cc3)nc2C#N)CC1,"inconclusive: 28.2 µM [inhibitor, single point]"
18,Cc1ccc(S(=O)(=O)NNC(=O)c2csnn2)cc1,inactive
19,COC(=O)CNC(=O)C(NC(=O)OCc1ccccc1)C(C)C (configuration not stated) (Cbz-[ξV]-Gly-OMe),"inconclusive: 10 µM [inhibitor, partial curve, poor fit]"
20,CCN1CCN(C(=O)c2ccc(Sc3ccccc3Cl)c([N+](=O)[O-])c2)CC1,inactive
21,O=C(COc1ccc(Cl)cc1)N1CCN(c2ccc([N+](=O)[O-])c(N3CCCCC3)c2)CC1,"inconclusive: 3.98 µM [inhibitor, single point]"
22,COc1ccc(CCNc2oc(Cc3cccc4ccccc34)nc2C#N)cc1OC,inactive
23,Cc1cc(C)c(S(=O)(=O)N2CCOC2CNC(=O)C(=O)NCCc2ccc(S(N)(=O)=O)cc2)c(C)c1 (configuration not stated),"inconclusive: 25.1 µM [inhibitor, partial curve]"

row,Compound,Potency
1,CCOc1ccc(C2=CSC3=NCCN23)cc1Cl,inactive
2,CCn1ncc(Cl)c1C(=O)Nc1ccncc1,inactive
3,COc1ccc(C2(C(=O)Nc3ccc(S(=O)(=O)Nc4nc(C)cc(C)n4)cc3)CCCC2)cc1OC,inactive
4,COc1ccc(CC(=O)N(C)CC(=O)Nc2ccccc2C(F)(F)F)cc1S(=O)(=O)N1CCOCC1,"inconclusive: 39.8 µM [inhibitor, single point]"
5,CC(=O)Nc1ccc(S(=O)(=O)Nc2ncccn2)cc1,"inconclusive: 0.708 µM [inhibitor, single point]"
6,CCCCOc1ccc(C(=O)N/C(=C/C=C/c2ccccc2)C(=O)O)cc1,inactive
7,CSc1ccc(/C=C/C(=O)NC(=O)c2ccccc2O)cc1,"inconclusive: 39.8 µM [inhibitor, single point]"
8,CC12CCC(C(=O)NCc3ccccc3)(OC1=O)C2(C)C (configuration not stated),"inconclusive: 4.47 µM [inhibitor, single point]"
9,O=C(COC(=O)C1=COCCO1)Nc1cc(Cl)c(Cl)cc1Cl,"inconclusive: 8.91 µM [inhibitor, partial curve]"
10,COc1cc2nc(CN(CCC(C)C)Cc3nc4cc(OC)c(OC)cc4c(=O)[nH]3)[nH]c(=O)c2cc1OC,inactive
11,CCn1c(SCC(=O)Nc2ccccc2C(=O)OC)nnc1-c1ccc(N)cc1,inactive
12,Clc1ccc(-c2ccc(C=Nc3ccc(N4CCOCC4)cc3)o2)cc1,inactive
13,CC(C)Sc1ccccc1C(=O)Nc1ccc2c(c1)n(C)c(=O)n2C,inactive
14,COC(=O)CCC(=O)NC(=S)Nc1sc(C)c(C)c1C(N)=O,inactive
15,COc1ccc(C(=O)COC(=O)c2cc([N+](=O)[O-])ccc2N2CCOCC2)c(OC)c1,"inconclusive: 39.8 µM [inhibitor, single point]"
16,Cc1ccc(S(=O)(=O)CC(=O)N(CCCN2CCOCC2)c2nc3c(F)cccc3s2)cc1,inactive
17,COc1ccc(C(=O)COC(=O)c2cccs2)cc1,"inconclusive: 1.26 µM [inhibitor, single point]"
18,CC1(C)CC(=O)CC(=O)/C1=N\Nc1c(Cl)cc(Cl)cc1Cl,"inconclusive: 5.01 µM [inhibitor, single point]"
19,O=C(Cn1nc(-c2ccc(Cl)cc2)c2ccccc2c1=O)NCC1CCCO1 (configuration not stated),inactive
20,C#CCOCCOCCOCCNc1nc(N2CCN(C(=O)C(Cc3ccc(O)cc3)n3cc(C(N)CC(C)C)nn3)CC2)nc(N2CCN(C(=O)C(Cc3cc4ccccc4[nH]3)n3cc(C(N)Cc4ccc(O)cc4)nn3)CC2)n1 (configuration not stated),"inconclusive: 39.8 µM [inhibitor, single point]"
21,COc1cc(C(=O)NNC(=O)c2cc(C)[nH]n2)cc(OC)c1OC,inactive
22,NC(=O)NC(=O)CC1S/C(=N/N=C2\CSC(=O)N2)NC1=O (configuration not stated),"inconclusive: 31.6 µM [inhibitor, single point]"
23,CCOC(=O)c1c(NC(=O)C2=C(C)NC(=S)NC2c2ccc(C)cc2)sc(C)c1C (configuration not stated),inactive

row,Compound,Potency
1,CNC(=S)N/N=C/c1cc(Br)cc(Br)c1O,active: 2 µM
2,CCOc1ccccc1/C=C(/NC(=O)c1ccccc1)C(=O)N(CC)CC,"inconclusive: 6.31 µM [inhibitor, single point]"
3,Brc1ccc(N/N=C(/N=Nc2nn[nH]n2)c2ccccc2)cc1,"inconclusive: 39.8 µM [inhibitor, partial curve, poor fit]"
4,COc1cccc2c(SCC(=O)N/N=C/c3ccc(O)cc3O)cc(C)nc12,"inconclusive: 2.24 µM [inhibitor, full curve, poor fit]"
5,O=C(/C=C/c1ccco1)NC(=S)Nc1ccc(N2CCCC2)cc1,"inconclusive: 28.2 µM [inhibitor, single point]"
6,CCN(C[C@H]1N[C@@](CC)(C(=O)OC)[C@H]2C(=O)N(Cc3ccccc3)C(=O)[C@@H]12)S(=O)(=O)c1ccccc1,"inconclusive: 39.8 µM [inhibitor, single point]"
7,COc1cc(C(=O)NC(=S)N(CCc2ccccc2)CCc2ccccc2)cc(OC)c1OC,"inconclusive: 3.55 µM [inhibitor, full curve]"
8,CC(C)CCNC(=O)[C@H](CC(C)C)NC(=O)[C@H]1O[C@@H]1C(=O)O,inactive
9,COc1ccc(OC)c(-c2cc(C3CCN(c4ncccc4[N+](=O)[O-])CC3)[nH]n2)c1,"inconclusive: 25.1 µM [inhibitor, partial curve]"
10,Cc1c(NC(=O)c2cccc(NC(=O)Cc3c(F)cccc3Cl)c2)c(=O)n(-c2ccccc2)n1C,"inconclusive: 0.708 µM [inhibitor, single point]"
11,Cc1cccc(N/N=C(\C=N\N)C(=O)c2ccc(Br)cc2)c1,"inconclusive: 14.1 µM [inhibitor, partial curve]"
12,FC(F)(F)c1cccc(NC(=S)Nc2cccc(NC(=S)Nc3cccc(C(F)(F)F)c3)n2)c1,"inconclusive: 22.4 µM [inhibitor, single point]"
13,CC12CCC(C/C1=N/O)C2(C)C (configuration not stated),"inconclusive: 8.91 µM [inhibitor, single point]"
14,CCN(CC)c1ccc(NC(=O)CN2CCN(c3ccccc3F)CC2)cc1,"inconclusive: 22.4 µM [inhibitor, partial curve]"
15,C=CCn1c(Cc2ccccc2)n[nH]c1=S,"inconclusive: 35.5 µM [inhibitor, single point]"
16,Cc1ccc(-c2ccc(CCC(=O)O)n2NC(=O)c2cccs2)cc1,active: 39.8 µM
17,CC1CCCC(NC(=O)COC(=O)c2ccc([N+](=O)[O-])s2)C1C (configuration not stated),"inconclusive: 31.6 µM [inhibitor, single point]"
18,CCC(C)(C)NC(=O)C(c1ccc(OC)cc1)N(Cc1cccs1)C(=O)CCC(=O)Nc1cc(C)on1 (configuration not stated),"inconclusive: 7.08 µM [inhibitor, full curve, poor fit]"
19,Nc1nc2c(s1)CCc1c-2cnn1-c1ccccc1,active: 31.6 µM
20,Cc1cccc(NC(=O)CN2C(=O)N/C(=C/c3ccc(-c4cccc(C(=O)O)c4C)o3)C2=O)c1,"inconclusive: 39.8 µM [inhibitor, single point]"
21,OCC1(Cc2ccccc2)CCCN(Cc2c[nH]c3ccccc23)C1 (configuration not stated),"inconclusive: 39.8 µM [inhibitor, single point]"
